Test results published in ChEMBL document CHEMBL4888484, “Replenishing the malaria drug discovery pipeline: Screening and hit evaluation of the MMV Hit Generation Library 1 (HGL1) against asexual blood stage Plasmodium falciparum ,using a nano luciferase reporter read-out” (2022).
Screen size: about 150,000 compounds; about 540 (0.36%) showed an effect of 50% or more. This is one part of the list.

Each compound was assayed on Plasmodium falciparum (assay: Primary screen in NF54 nanoGlo assay, in single point, at 2uM, 72h; a lower Z score goes with more inhibition). Settings: timepoint 72 hour.
Type: functional, Erythrocyte

SMILES	% Inhibition	Z score
Cc1ccc(S(=O)(=O)NC[C@H]2CC[C@H](C(=O)N[C@H](CC(C)C)C(=O)N3CCCCC3)CC2)cc1	-2%	0.44
O=C(NCCCCOc1ccccc1)c1ncoc1[C@@H]1CCCO1	-2%	0.28
CCn1nccc1C(=O)N1CCC[C@H](N(CCCN2CCOCC2)C(C)=O)C1	-4%	0.47
C[C@@H](c1ccncc1)N(C)Cc1ccc2c(c1)CCO2	-9%	1.02
COc1ccccc1CNC(=O)[C@]1(C)Cn2nc(-c3ccccc3)cc2C(=O)N1Cc1ccco1	-14%	2.16
Cc1ccc2c(c1)c1c(n2CCc2ccccn2)CCN(C2CCNCC2)C1	0%	0.06
Cc1csc(COc2ccc(C(=O)Nc3cccc4nc(C)ccc34)cc2)n1	-7%	1.37
Cc1ccccc1C(=O)NCCc1n[nH]c(C2CCCCC2)n1	-11%	2.12
Fc1cccnc1NCCc1cn2c(n1)CCCC2	1%	-0.1
Cc1nc(CCNC(=O)[C@H]2CCCN(C(=O)c3cccs3)C2)cs1	12%	-1.54
CN(CCC(C)(C)C)Cc1nccn1C	-3%	0.3
CS(=O)(=O)N1CCN(C(=O)COc2cccc3c2CCC3=O)CC1	0%	0.01
Cc1ocnc1CNC(=O)CC1=CCCCC1	-3%	0.37
COC(=O)c1ccc(Nc2ccc(N3CCCC3)c(C)c2)nn1	-4%	0.59
CCN1CCC(N[C@H]2C[C@@H](C(=O)NC(C)C)N(Cc3ccc4ccccc4c3)C2)CC1	-3%	0.43
O=C1Nc2ccc(Br)cc2[C@@H]1c1cc(Br)ccc1O	-11%	1.36
CC1(C)CN(CCCNC(=O)C2CCCC2)CCO1	-1%	0.1
COc1ccc(NC(=O)C2[C@H]3C=C[C@@]4(O3)C(C(=O)NC3CCCC(C)C3C)N(C3CCCCC3)C(=O)[C@@H]24)cc1 (stereo partly specified)	3%	-0.32
CC(C)C(=O)N[C@@]1(C(F)(F)F)NC(=O)N(Cc2cccnc2)C1=O	-7%	1.12
Cn1cc(Cl)c(CNC(=O)N2CCC(OC3CCC3)CC2)n1	-18%	2.74
CC(C)Nc1nc(N(C)c2ccccc2)nc(-n2ccnc2)n1	5%	-0.65
COC(=O)c1ccccc1N(C)C(=O)CN1CCC[C@H]1c1ccc2c(c1)OCCCO2	-14%	1.46
CC(C)(C)c1nsc(NC(=O)N2CCN(c3ncccc3F)CC2)n1	13%	-2.09
C[C@@H](c1ccccc1)N(Cc1cccc(F)c1)Cc1nc(C(=O)NCc2ccccc2)co1	-5%	0.93
CN1CCN(C(=O)c2ccc(Oc3ccc(C(F)(F)F)cn3)cc2)[C@H](c2ccccc2)C1	-19%	2.43
Clc1cc(Br)ccc1-c1nnc(-c2cnccn2)o1	-9%	1.44
O=C(Nc1nc(-c2cccc(Cl)c2)cs1)[C@]1(O)CCCNC1	-18%	2.7

SMILES	% Inhibition	Z score
O=C(c1ncn2c(=O)n(C3CCCCC3)nnc12)N1CCOCC1	2%	-0.31
O=C(C[C@@H]1NC(=O)c2ccccc2N=C1O)NC1CCCCCCC1	-6%	0.8
COCCc1nc(CNC(=O)[C@@]2(C)CC[C@@H](C(=O)N(C)C)C2(C)C)no1	0%	-0.01
CCCNCCNC(=O)c1cc(Br)ccc1O	7%	-1.21
CN(C(=O)c1nnc(C(C)(C)C)s1)[C@@H](CCO)c1ccccc1	4%	-0.41
Cc1cccc(C)c1N1C(=O)[C@H]2[C@@H](C1=O)[C@]1(N[C@H]2C(C)C)C(=O)Nc2ccccc21	-3%	0.34
COc1ccc(C(=O)N(CC(=O)N(CCc2ccccc2)Cc2ccco2)CC(C)C)cc1	-13%	1.72
CNC(=O)C1CCCCC1NC(=O)C(F)(F)c1ccc(OC)cc1 (stereo unspecified)	-5%	0.53
COCCCNC(=O)NC1CC(C)N(C2CC2)C1 (stereo unspecified)	-5%	0.72
O=C(Cc1ccc(Cl)cc1)N1CCc2n[nH]c(=O)n2CC1	-5%	0.87
CCCn1c(=O)n(CCC(=O)N(C)[C@@H](C(=O)OC)c2cc(F)ccc2F)c2ccccc21	2%	-0.28
Cc1ccc(Cl)cc1N1CCN(C(=O)c2ccc3c(c2)NC(=O)[C@@H]2CCCCN32)CC1	-6%	0.82
CC1CCN(C[C@H]2CCCN(Cc3nc4ccccc4o3)C2)CC1	0%	0.06
COc1ccc(Cl)cc1-c1ccnc(O)c1	-7%	1.19
O=C(Cn1cnnn1)NCCC1CC2CCC1C2 (stereo unspecified)	4%	-0.59
CCCNC(=O)[C@H](C)NC(=O)c1cccc(Cl)c1	1%	-0.14
Cc1c([C@H](C)NC(=O)c2ccccn2)cnn1C	25%	-2.82
Cc1cnccc1CN(C)C(=O)c1c[nH]c(=O)[nH]c1=O	1%	-0.08
COc1ccc(COC(=O)c2ccncc2)cn1	-14%	2.24
CC(C)Cc1cc(C(=O)N2CC[C@@H]3OCc4cnnn4[C@H]3C2)no1	0%	-0.05
O=C(c1cccc(S(=O)(=O)N2CCCCC2)c1)N1CCC[C@H](c2nc3ccccc3s2)C1	-3%	0.47
CCc1nc2c(N3CCC[C@]4(CCC(=O)N(C(C)C)C4)C3)ncnc2o1	-4%	0.82
Cc1cc(Cl)ccc1O[C@@H](C)c1ncnn1CCCO	1%	-0.17
N[C@H]1CCCN(C(=O)Nc2ccc(F)c(Cl)c2)CC1	-6%	0.84
Cc1nc([C@H]2CCS(=O)(=O)C2)n(-c2cc(S(N)(=O)=O)ccc2F)n1	2%	-0.46
C=C(C)C(=O)Nc1ccc(Cc2ccc(NC(=O)C(=C)C)c(O)c2)cc1O	0%	-0.04
